We go through 10 compounds from the supplement of paper PMC4604168 (melanoma cell lines).

Among the test systems are WM115; WM1716; WM1745; WM3526; WM3619; WM451Lu.
Assay in all cases: cell count relative to DMSO control; melanoma cells; higher = more viable cells
Settings in all cases: library dose: low library concentration; 72 h

Some of the results follow. Repeats are few or missing, and single values can be far off.
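Further: cell number obtained by counting DAPI-stained nuclei in high-throughput microscope images with image analysis software, screen run in 1,536-well plates.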

In the case of `Cc1cc(Nc2cc(N3CCN(C)CC3)nc(Sc3ccc(NC(=O)C4CC4)cc3)n2)n[nH]1` [Tozasertib] + O=c1cc(-c2cccc3c2Sc2ccccc2S3)oc(N2CCOCC2)c1 [KU55933] (first compound 0.006 µM, partner dose 1 µM), the cell count in the assay on WM115 came out at 92.6%; in the assay with WM1716 it was 104%; in the assay on WM1745 it was 87.7%; in the assay on WM3526, 78%; in the assay with WM3619, 120%; with WM451Lu it was 89.3%.
As to `Cc1cc(Nc2cc(N3CCN(C)CC3)nc(Sc3ccc(NC(=O)C4CC4)cc3)n2)n[nH]1` [Tozasertib] + O=C(Nc1cc(C(F)(F)F)cc(C(F)(F)F)c1)c1cc(Cl)ccc1O [IMD0354] (first compound 0.006 µM, partner dose 0.016 µM), the cell count in the assay on WM115 worked out at 104%; in the assay on WM1716, 87.3%; in the assay with WM1745, 92.9%; with WM3526 it was 78%; with WM3619, 82.6%; in the assay with WM451Lu, 92.4%.
As to `CC[C@]1(O)C[C@H]2CN(CCc3c([nH]c4ccccc34)[C@@](C(=O)OC)(c3cc4c(cc3OC)N(C=O)[C@H]3[C@@](O)(C(=O)OC)[C@H](OC(C)=O)[C@]5(CC)C=CCN6CC[C@]43[C@@H]65)C2)C1` [vincristine] + CCCCCCCCc1ccc(CCC(N)(CO)CO)cc1 [fingolimod] (first compound 0.0001 µM, partner dose 2 µM), the cell count in the assay with WM115 was 55.3%; in the assay with WM1716, 43.7%; with WM1745, 64.7%; in the assay on WM3526 it was 81.4%; with WM3619, 44.2%; with WM451Lu it was 64.6%.
Take `Cc1cc(Nc2cc(N3CCN(C)CC3)nc(Sc3ccc(NC(=O)C4CC4)cc3)n2)n[nH]1` [Tozasertib] + COc1cc(N2CCC(N3CCN(C)CC3)CC2)ccc1Nc1ncc(Cl)c(Nc2ccccc2S(=O)(=O)C(C)C)n1 [NVP-TAE684] (first compound 0.006 µM, partner dose 0.08 µM): the cell count in the assay on WM115 was 87.6%; with WM1716, 89.6%; with WM1745 it was 73.4%; in the assay on WM3526, 82.7%; in the assay on WM3619, 88.8%; with WM451Lu, 93.8%.
`N#CC[C@H](C1CCCC1)n1cc(-c2ncnc3[nH]ccc23)cn1` [ruxolitinib] + Cn1nnc2c(C(N)=O)ncn2c1=O [temozolomide] (first compound 1 µM, partner dose 2 µM): the cell count in the assay on WM115 was determined as 116%; in the assay on WM1716 it was 91.2%; in the assay with WM1745, 91.9%; in the assay on WM3526 it was 102%; in the assay with WM3619, 106%; with WM451Lu, 104%.
Consider `CC[C@]1(O)C[C@H]2CN(CCc3c([nH]c4ccccc34)[C@@](C(=O)OC)(c3cc4c(cc3OC)N(C=O)[C@H]3[C@@](O)(C(=O)OC)[C@H](OC(C)=O)[C@]5(CC)C=CCN6CC[C@]43[C@@H]65)C2)C1` [vincristine] + O=C(O)c1ccc2c(c1)nc(Nc1cccc(Cl)c1)c1ccncc12 [CX4945] (first compound 0.0001 µM, partner dose 0.4 µM), for which the cell count in the assay with WM115 came to 53.9%; in the assay on WM1716 it was 41.7%; in the assay with WM1745, 110%; with WM3526, 84.4%; with WM3619, 38.9%; in the assay with WM451Lu, 65.2%.
For the compound `Cc1cc(Nc2cc(N3CCN(C)CC3)nc(Sc3ccc(NC(=O)C4CC4)cc3)n2)n[nH]1` [Tozasertib] + COc1cc(Nc2ncc(F)c(Nc3ccc4c(n3)NC(=O)C(C)(C)O4)n2)cc(OC)c1OC [Tamatinib] (first compound 0.006 µM, partner dose 0.4 µM), the cell count in the assay with WM115 was found to be 84.1%; in the assay with WM1716 it was 92.4%; with WM1745, 40%; in the assay on WM3526, 89.7%; in the assay on WM3619, 82.2%; with WM451Lu it was 57.2%.
As to `Cc1cc(Nc2cc(N3CCN(C)CC3)nc(Sc3ccc(NC(=O)C4CC4)cc3)n2)n[nH]1` [Tozasertib] + COc1ccc(COc2ccc(Cc3cnc(N)nc3N)cc2OC)cc1 [GW2580] (first compound 0.006 µM, partner dose 1 µM), the cell count in the assay with WM115 turned out to be 84.3%; with WM1716 it was 92.1%; in the assay with WM1745 it was 89.5%; in the assay on WM3526 it was 89.7%; in the assay on WM3619 it was 85.7%; with WM451Lu, 103%.
`CC[C@]1(O)C[C@H]2CN(CCc3c([nH]c4ccccc34)[C@@](C(=O)OC)(c3cc4c(cc3OC)N(C=O)[C@H]3[C@@](O)(C(=O)OC)[C@H](OC(C)=O)[C@]5(CC)C=CCN6CC[C@]43[C@@H]65)C2)C1` [vincristine] + C#Cc1cccc(Nc2ncnc3cc(OCCOC)c(OCCOC)cc23)c1 [erlotinib] (first compound 0.0001 µM, partner dose 0.8 µM): the cell count in the assay on WM115 was determined as 42.1%; with WM1716, 42.6%; in the assay on WM1745, 59.5%; in the assay with WM3526 it was 61.5%; with WM3619, 41.7%; with WM451Lu, 49.1%.
Take `N#CC[C@H](C1CCCC1)n1cc(-c2ncnc3[nH]ccc23)cn1` [ruxolitinib] + COc1ccc(Cl)c(Nc2nc3ccccc3nc2NS(=O)(=O)c2cccc(NC(=O)C(C)(C)N)c2)c1 [XL147] (first compound 1 µM, partner dose 0.8 µM): the cell count in the assay with WM115 came to 104%; with WM1716 it was 115%; in the assay with WM1745, 111%; with WM3526, 107%; in the assay on WM3619, 96.1%; in the assay on WM451Lu it was 125%.
